Experimental data reported in paper PMC4336329 (PLoS ONE, 2015).
Among all 310,000 compounds or so, about 14,000 (4.5%) showed an effect of 50% or more. Effects have a minus sign here. The list shows a part of the results.

Biological target: human ether-à-go-go-related gene (hERG) potassium channel (human, UniProt Q12809)
Assay: primary screen, population patch clamp on CHO cells stably expressing hERG
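Note: peak tail current of the secondary pulse compared with the same well before compound.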

human ether-à-go-go-related gene (hERG) potassium channel, sequence (Q12809 whole entry, looked up): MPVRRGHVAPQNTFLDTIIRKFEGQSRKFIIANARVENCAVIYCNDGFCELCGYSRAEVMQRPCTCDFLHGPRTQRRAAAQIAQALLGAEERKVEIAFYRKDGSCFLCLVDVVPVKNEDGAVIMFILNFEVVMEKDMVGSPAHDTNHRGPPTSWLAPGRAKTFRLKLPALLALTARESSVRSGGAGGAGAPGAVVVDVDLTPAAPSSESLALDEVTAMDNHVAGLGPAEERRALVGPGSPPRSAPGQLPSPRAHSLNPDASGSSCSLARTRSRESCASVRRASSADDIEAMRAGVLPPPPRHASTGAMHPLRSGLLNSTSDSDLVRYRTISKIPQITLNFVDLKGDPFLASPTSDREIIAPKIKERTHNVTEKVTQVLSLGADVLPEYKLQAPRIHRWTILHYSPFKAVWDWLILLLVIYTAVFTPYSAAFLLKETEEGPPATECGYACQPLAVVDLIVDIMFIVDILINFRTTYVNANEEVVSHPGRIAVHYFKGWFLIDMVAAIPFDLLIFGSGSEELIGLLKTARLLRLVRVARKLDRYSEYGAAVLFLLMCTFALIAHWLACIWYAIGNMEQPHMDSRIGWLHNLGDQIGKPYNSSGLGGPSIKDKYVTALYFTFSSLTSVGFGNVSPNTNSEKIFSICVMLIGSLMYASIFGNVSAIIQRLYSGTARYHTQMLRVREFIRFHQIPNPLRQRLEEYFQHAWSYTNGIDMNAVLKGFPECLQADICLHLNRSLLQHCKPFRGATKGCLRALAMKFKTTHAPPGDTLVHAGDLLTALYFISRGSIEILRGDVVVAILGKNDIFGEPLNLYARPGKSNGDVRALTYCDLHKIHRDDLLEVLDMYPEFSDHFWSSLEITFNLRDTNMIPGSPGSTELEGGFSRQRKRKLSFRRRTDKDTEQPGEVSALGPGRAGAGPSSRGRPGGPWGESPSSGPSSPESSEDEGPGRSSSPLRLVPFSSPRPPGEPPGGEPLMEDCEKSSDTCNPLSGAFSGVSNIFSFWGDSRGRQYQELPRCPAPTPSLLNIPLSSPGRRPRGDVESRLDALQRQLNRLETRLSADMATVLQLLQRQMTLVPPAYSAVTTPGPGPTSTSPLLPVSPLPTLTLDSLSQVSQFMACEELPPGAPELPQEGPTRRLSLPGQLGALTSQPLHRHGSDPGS

SMILES	hERG current change (%, negative = inhibition) at 10uM [%]
Cc1[nH]c2ccc(Br)cc2c(=S)c1C/C=C/Cl	-4.28
Cc1nn(-c2ccccc2)c(Cl)c1/C=C/C(=O)c1ccc(O)cc1	5.38
Cc1c(C(=O)N2CCN(c3ccccc3)CC2)sc2nc3n(c(=O)c12)CCC3	6.84
CCCCNC(=O)c1ccc2c(c1)S(=O)(=O)c1ccccc1C2=O	-27.9
COc1ccc(N2CCN(C(=O)C3CCN(S(=O)(=O)c4cccs4)CC3)CC2)cc1	-49.3
O=C(OCC1CC(c2ccccc2Cl)=NO1)c1ccc(Br)cc1 (centres unmarked)	4.88
COC(=O)c1ccsc1NC(=O)c1ccc2c(c1)OCCO2	8.1
C=CCOc1cccc(C2C(C(=O)c3ccco3)=C(O)C(=O)N2Cc2ccco2)c1 (centres unmarked)	9.44
CC(C)N(C)Cc1cn(C)nc1-c1ccc(Oc2ccccc2)cc1	-30.2
Cc1ccc(S(=O)(=O)N2CC(=O)Nc3ccccc32)cc1	-5.87
CC(C)(C)c1csc(NC(=O)c2cccs2)n1	-16.3
CCCCNC(=O)CSc1nnc(-c2c[nH]c3ccccc23)n1CC1CCCO1 (centres unmarked)	-3
CC(=O)Nc1ccc(OC(=O)c2cccs2)cc1	-7.22
O=S(=O)(/N=C(/Nc1ccc(Cl)c(S(=O)(=O)N2CCOCC2)c1)c1ccc(F)cc1)c1ccccc1	-21
CSc1cccc(CNC(=O)C2CCC(=O)N(CCCN3CCCC3=O)C2)c1 (centres unmarked)	20.5
Cc1c(C(=O)NCc2ccc3c(c2)cc(C)n3C)cccc1[N+](=O)[O-]	0.389
COc1cc2nc(N(CCCN(C)C)C(=O)c3ccc(S(=O)(=O)N4CCc5ccccc54)cc3)sc2cc1OC.Cl	-23.6
Cn1nc(C(=O)NCCc2ccc(S(N)(=O)=O)cc2)c2c1-c1ccccc1S(=O)(=O)C2	8.39
COc1ccccc1N/N=C1\COC(C)(C)CC1=O	-6.5

SMILES	hERG current change (%, negative = inhibition) at 10uM [%]
COc1cccc(N2CCC(N3CCN(C)C(CCO)C3)CC2)c1 (centres unmarked)	18.7
CC(C)OC(=O)CSc1nnc(Cc2ccccc2)n1C	-1.69
CC(=O)Nc1ccc(NC2CCCCC2NS(=O)(=O)c2ccccc2)cc1 (centres unmarked)	10.8
NC(=O)CSc1nc2cc(Cl)ccc2c(=O)n1C1CCCCC1	-14
NC(=S)N/N=C1\CC(n2nnn(-c3cccc(Cl)c3)c2=S)C2COC1O2 (centres unmarked)	-26.8
CCOC(=O)C1CCN(C(=O)CN2C(=O)NC3(CCCCC3)C2=O)CC1	13.9
Cc1ccc(CCNC(=O)CS(=O)Cc2nc(-c3cccc(C)c3)oc2C)cc1 (centres unmarked)	-15.4
Cc1ccc(N2CCN(S(=O)(=O)N(C)C)CC2)cc1C	6.36
COCCNC(=O)C(c1ccc(F)cc1)N(Cc1ccccc1)C(=O)CCC(=O)Nc1ccccn1 (centres unmarked)	8.9
CCOC(=O)NN1C(=O)c2ccccc2NC1c1cccs1 (centres unmarked)	-38.4
CCOc1ccc2nc(N/C(N)=N/C(=S)Nc3cccc(OC)c3)nc(C)c2c1	-0.334
O=C(CN1C(=O)C2C3C=CC(C4CC34)C2C1=O)Oc1ccccc1 (centres unmarked)	0.512
Cc1ccc2nc(SCC(=O)OCc3ccccc3)nc(=O)n2c1	-10.9
CCCS(=O)(=O)N1CCCC(C(=O)NCc2cccnc2)C1 (centres unmarked)	17.2
CC(=O)c1c(N2CCN(Cc3ccccc3)CC2)nc(=S)n(Cc2ccccc2)c1C	-37.7
Cn1cc(-c2ccccc2C(=O)O)c(=O)c2ccccc21	22.4
O=C(Nc1ccccc1Cl)c1cc(S(=O)(=O)N2CCCCC2)ccc1N1CCOCC1	-39.7
COc1ccc2[nH]c(C(=O)O)c(NC(=O)c3ccccc3[N+](=O)[O-])c2c1	10.5
N#Cc1c(NC(=O)CSCC(=O)O)sc2c1CCCC2	1.5

SMILES	hERG current change (%, negative = inhibition) at 10uM [%]
Fc1c(F)c(C(F)(F)F)c(F)c(F)c1N/N=C\c1cccs1	15.5
COc1ccc(OCC(O)Cn2ccnc2C)cc1 (centres unmarked)	5.09
COC(=O)c1cc2sccc2n1CC(=O)Nc1ccc(OC)c(OC)c1OC	-1.08
CCn1c(SCC(N)=O)nnc1-c1ccc(S(=O)(=O)N2CCN(C)CC2)cc1	0.745
CC(=O)c1ccc(S(=O)(=O)N2CCNCC2)cc1.Cl	-1.77
C/C(=N\NC(=O)CCn1nnc2ccccc21)c1cccs1	11.8
CCCc1nc2ccc(NC(C)=O)cc2c(=O)n1Cc1ccc(Cl)cc1	13.1
Cc1cc(Cl)ccc1OC(C)C(=O)NN=C1CCCCCC1 (centres unmarked)	7.3
CNC(=O)COC(=O)c1cc(-c2ccco2)nc2ccccc12	-2.59
Cc1ccc(NC(=O)C2C3/C=C\CCCCC32)cc1 (centres unmarked)	18.9
O=C(CCN1CCN(c2ccccc2F)CC1)Nc1ccc(F)cc1	-18.3
CNC(C)C(=O)NC(C(=O)N1CCCC1C(=O)NC1CCCc2ccccc21)C(C)C.O=CO (centres unmarked)	10.7
COc1cc(/C=C2/C(=N)N3C=CSC3=NC2=O)ccc1OCCCOc1cc(C)ccc1C	2.54
O=C(c1ccc(-c2ccc([N+](=O)[O-])cc2)o1)N1CCCCC1	-58.4
O=S(=O)(NCc1csc(-c2cccnc2)n1)c1ccc2c(c1)OCCO2	-9.89
Cc1cc(C)nc(SCC(=O)N/N=C\C(Br)=C\c2ccccc2)n1	8.74
CCOc1ccc(C(=O)Nc2sc3c(c2C(=O)OC)CC(C)(C)NC3(C)C)cc1	-7.16
NC(=O)c1ccccc1NC(=O)/C=C/c1ccccc1	4.98
